Experimental data reported in paper PMC6919601, “Identification of Plasmodium dipeptidyl aminopeptidase allosteric inhibitors by high throughput screening” (PLoS ONE, 2019).
In all, about 110,000 compounds went through this assay and about 230 (0.21%) showed an effect of 50% or more. Some of the results follow.

target: DPAP1 (Plasmodium falciparum, UniProt Q8IIJ9); test: primary screen, percent inhibition; read by cleavage of a fluorogenic dipeptide substrate; higher = more effect of the substance; set-up: species or system P. falciparum D10 trophozoite lysates; single well
Sequence (Q8IIJ9 whole entry, looked up): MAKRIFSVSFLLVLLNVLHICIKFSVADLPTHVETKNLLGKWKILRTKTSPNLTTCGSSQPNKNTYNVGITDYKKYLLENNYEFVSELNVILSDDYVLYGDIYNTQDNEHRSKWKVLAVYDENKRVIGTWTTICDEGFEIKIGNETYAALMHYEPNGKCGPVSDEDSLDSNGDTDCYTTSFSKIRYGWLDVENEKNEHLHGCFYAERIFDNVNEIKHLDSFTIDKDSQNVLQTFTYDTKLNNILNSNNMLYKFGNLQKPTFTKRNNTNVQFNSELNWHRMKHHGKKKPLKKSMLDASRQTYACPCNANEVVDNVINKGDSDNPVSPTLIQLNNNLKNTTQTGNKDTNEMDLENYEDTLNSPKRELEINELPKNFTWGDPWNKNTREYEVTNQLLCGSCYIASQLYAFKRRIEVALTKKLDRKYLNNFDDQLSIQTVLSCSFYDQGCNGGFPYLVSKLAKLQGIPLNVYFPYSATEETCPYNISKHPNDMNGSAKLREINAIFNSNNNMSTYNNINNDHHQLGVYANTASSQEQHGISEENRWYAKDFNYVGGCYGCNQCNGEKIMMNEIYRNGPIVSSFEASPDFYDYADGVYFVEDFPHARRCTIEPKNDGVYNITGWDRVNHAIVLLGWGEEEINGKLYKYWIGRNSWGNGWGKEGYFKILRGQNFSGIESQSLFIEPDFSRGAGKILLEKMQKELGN
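Further: 30 min substrate incubation versus DMSO and 10 µM JCP410 controls.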

Structure (SMILES)	% Inhibition @ 10 uM [%]
CCOC(=O)N1CCN(Cc2ccc(F)cc2)CC1	5.8
CN(C)CC(C)(C)CNC1Cc2ccccc2C1	-7.35
Oc1ccccc1C1=NN2C(C1)c1ccccc1OC2c1cccnc1 (stereo not drawn)	-1.68
O=C(O)c1cccn1-c1nnc(N2CCCCCC2)s1	0.0198
CCCN1CCN(C(=O)Cn2ncc3c(C)n(Cc4ccc(C)cc4)c(C)c3c2=O)CC1	-7.72
COc1cccc(C2C3=C(O)CCCC3=Nc3nc(SC)nn32)c1OC (stereo not drawn)	-1.62
Cc1ccc(S(=O)(=O)/N=C(/NC2CCCCC2)c2ccc(F)cc2)cc1	-1.4
Cc1cc(C)c(Cn2c(C)nc3ccccc32)c(C)c1	-0.0235
CCc1nnc(NC(=O)CSc2nnnn2-c2ccccc2)s1	-1.26
C=CCN1C(=O)/C(=C/c2ccccc2OC)C(=O)NC1=S	0.467
O=C(CCNS(=O)(=O)c1ccc(Br)s1)NC1CCN(Cc2ccccc2)CC1	2.01
CCOc1cc(NC(=O)c2ccccc2)c(OCC)cc1N	0.431
CCOC(=O)C1=CN(Cc2ccc(OC)cc2)C=C(C(=O)OCC)C1c1ccccc1OC(C)C	1.86
Cc1ccc(NC(=O)CC(C(=O)O)N2CCN(C)CC2)cc1Cl (stereo not drawn)	3.58
Cc1ccc(OCc2nc(-c3ccc(C(=O)NCc4ccc(C)o4)cc3)oc2C)cc1	-4.4
C=C(C)Cn1c(N2CCOCC2)nc2c1c(=O)[nH]c(=O)n2C	-1.32
O=C(c1cccc(C(=O)N2CCc3ccccc32)c1)N1CCc2ccccc21	-1.96
COc1ccc(C2CC3=NC(C)=C(C(=O)Nc4cccc(C)n4)C(c4ccc(F)cc4)C3=C(O)C2)cc1 (stereo not drawn)	5.18
Nc1ncc(Br)nc1Br	-2.88
O=C(c1ccccc1)c1cnc2ccc(F)cc2c1N1CCOCC1	-1.69
Cc1ccc(NC(=O)c2ccccc2C)c([N+](=O)[O-])c1	0.247
CCO/C(O)=C/C1=NC2(CCCCC2)Cc2cc(OC)c(OC)cc21	7.67
CC1CCc2nn(CC(=O)NCCN3CCCCC3C)cc2C1 (stereo not drawn)	-3.35
CC1CCc2c(sc(NC(=O)Cc3ccccc3)c2C#N)C1 (stereo not drawn)	-2.56
COc1ccc(C2C(C(C)=O)=C(C)N=c3s/c(=C/c4ccc(N(C)C)cc4)c(=O)n32)cc1 (stereo not drawn)	5.87
CCCCNC(=O)C1CCCN(c2nc3ccc(OC)cc3s2)C1 (stereo not drawn)	2.59

Structure (SMILES)	% Inhibition @ 10 uM [%]
O=C(Nc1ccc2nc(SCc3ccccc3)sc2c1)c1ccccc1	-3.5
CC(=O)Nc1cccc(NC(=O)c2c(-c3c(Cl)cccc3Cl)noc2C)c1	6
O=C1N=C(N2CCCCCC2)S/C1=C/c1ccccc1	3.84
COc1ccc(C)cc1C1=C/C(=C\c2ccc(C)o2)C(=O)O1	-10.8
c1ccc2c(c1)c(NCc1ccc3c(c1)OCO3)nn1cnnc21	0.675
CCCSCCCNC(=O)Cn1nc(C)n2cccc2c1=O	-2.15
CC1=NN(C(=O)c2cccc(C)c2O)C(O)(C(F)(F)F)C1 (stereo not drawn)	-2.67
COCCCNc1ncnc2onc(C)c12	-0.349
CCN1CCCC1CNC(=O)c1nnc(Cc2ccc(F)cc2)o1 (stereo not drawn)	1.19
CS(=O)(=O)CCC(C(=O)N1CCC2(CC1)OCCO2)N1Cc2ccccc2C1=O (stereo not drawn)	0.56
COc1ccc(CCN2CC(=O)N3CCCC(c4cc(O)ccc4O)=C3C2=O)cc1OC	0.222
Cn1c(=O)c2sccc2n2c(CCCC(=O)N3CCN(Cc4ccccc4)CC3)nnc12	-1.59
COC(=O)c1ccc(C2Nn3c(nnc3-c3ccccc3)SC2C(=O)NCc2ccco2)cc1 (stereo not drawn)	4.93
C=CC[C@H]1CC(Cc2ccccc2)=C[C@H](CC=C)N1	-10.5
C=CCOC(=O)C1=C(C)N=C2SCCC(=O)N2C1c1ccc(Cl)c(Cl)c1 (stereo not drawn)	-1.4
CCOc1ccc(-c2c(C#N)c(N)nc(OC)c2C#N)cc1	-5.5
O=C(N1CC=C(c2c[nH]c3ccccc23)CC1)n1ccnc1	-1.75
Cc1nc2ccccc2n1CCOc1ccccc1Cl	0.162
N#Cc1c(N)nc(S)c(C#N)c1-c1cccc(Cl)c1	49.6
COC(=O)C1=C(C)NC(=O)CC1c1cccc(Cl)c1Cl (stereo not drawn)	1.84
CCN1CCN(c2nc3c(c(=O)n(C)c(=O)n3C)n2Cc2ccc(Br)cc2)CC1	3.35
COc1cc(C2C(C(=O)c3ccccc3)=C(O)C(=O)N2CCN(C)C)ccc1O (stereo not drawn)	7.73
CC(C)(C)NS(=O)(=O)c1ccc(NC(=O)Nc2ccc(Cl)cc2)cc1	1.64
COc1ccc(/C=C2\N=C(SC)N(C)C2=O)cc1	0.76
Cc1ccc(C2CC(=O)NC(SCc3ccccc3)=C2C#N)cc1 (stereo not drawn)	2.01
COc1ccc(/C=C2\C(=O)N(c3cccc(F)c3)N=C2C)cc1	0.219

Structure (SMILES)	% Inhibition @ 10 uM [%]
CCCCCCNC(=O)CC(NS(=O)(=O)c1ccc(C)cc1)c1ccco1 (stereo not drawn)	1.27
CCOC(=O)C1=C(CS(=O)(=O)c2ccccc2)NC(=O)NC1c1cc(OC)c(OC)cc1OC (stereo not drawn)	1.24
NC(=O)c1cnn(-c2cc(Oc3ccccc3)ncn2)c1N	1.64
Nc1c(C(=O)c2cccc([N+](=O)[O-])c2)sc2nccc(Nc3ccccc3)c12	5.77
CCOCCCNC1CCN(CCc2ccccc2)CC1	-3.82
Cc1ccc(C2C(C#N)=C(N)Oc3cc4c(cc32)OCO4)cc1 (stereo not drawn)	-5.96
COc1ccc(S(=O)(=O)Nc2ccccc2F)cc1OC	-7.02
COc1ccc(/C=C/C=C(\C#N)S(=O)(=O)c2ccccc2)cc1	-3.9
C=CCn1c(SCc2ccccc2)nc(=O)c(CC)c1O	-3.15
Cn1nnnc1SCCCNCC#Cc1ccccc1	5.39
COc1c(Cl)cc(Cl)cc1C(=O)N1CCOCC1	-1.8
CCCCNC(=O)Cn1ncc2c1-c1cc(C)ccc1OC2	-3.5
CC(C)(C)NC(=O)COc1ccc(CNc2ccc3c(c2)OCCO3)cc1	2.01
O=C(Cc1cccc2ccccc12)Nc1cnc2ccccc2c1	-1.46
Cc1ccc(Cn2c(C(=O)O)c(CNCCc3ccccc3C)c3ccc(C)cc32)cc1	7.87
c1ccc(CN2CCC(NC3CCc4ccccc4C3)CC2)cc1 (stereo not drawn)	-2.95
c1ccc(-c2csc3ncnc(N4CCOCC4)c23)cc1	2.38
Cc1cc(C)c(C)c(OCC(=O)NCc2nc(-c3ccccc3)no2)c1	-2.99
CCOc1ccccc1CNC(=O)CN1C(=O)CSc2c1c(C)nn2-c1ccccc1	3.82
C=CCNC(=O)CN(C)S(=O)(=O)c1ccc(OC)c(OC)c1	-3.76
Cc1ccc(OCC(=O)Nc2ccccc2F)cc1	0.247
COc1ccc(CCNC(=O)C2Cc3ccccc3CN2S(=O)(=O)c2ccc(C)cc2)cc1OC (stereo not drawn)	-7.9
O=C(CN(Cc1ccccc1)S(=O)(=O)c1cc(Cl)ccc1Cl)N1CCOCC1	-0.185
COc1ccc(CNC(=O)c2coc(=O)c3ccccc23)cc1	-0.631
COc1cc(OC)cc(-c2nc3nc(C)c(CCC(=O)O)c(C)n3n2)c1	-1.03
Cc1c(Cl)cccc1NC(=O)CC1NCCNC1=O (stereo not drawn)	-5.81

Structure (SMILES)	% Inhibition @ 10 uM [%]
O=C(NCCc1c[nH]c2ccccc12)C(F)(F)C(F)F	7.04
Cc1nc2ccccc2n1CCc1nc2c3ccccc3nc(N3CCC(C)CC3)n2n1	2.6
Cc1ccc(-c2cc(C(F)(F)F)n3nc(C(=O)N4CCOCC4)c(Cl)c3n2)cc1	-2.89
CC(=O)c1cc2c(cc1NC(=O)C1CCC1)OCO2	-3.19
O=C(CN(C1CCCCC1)S(=O)(=O)c1ccc(F)cc1)Nc1ccc(F)cc1	-1.36
COc1ccc(OCC(O)CNC(C)C)cc1 (stereo not drawn)	-4.24
Cn1c(=O)n(C)c2cc(/C=C3/SC(=O)N(CC(=O)N4CCOCC4)C3=O)ccc21	2.33
Cc1ccc2c(Cl)c(C(=O)Nc3ncc(C)s3)sc2c1	6.29
Cc1ccc(C(=O)Nc2sc3c(c2C#N)CCC(C)C3)o1 (stereo not drawn)	-3.63
O=C1C2C3CCC(O3)C2C(=O)N1c1ccccc1O (stereo not drawn)	-4.85
Cc1ccccc1NC(=O)CN(c1ccccc1F)S(C)(=O)=O	1.89
COc1ccc(CN2CCN(Cc3cccc(Cl)c3)CC2)cc1OC	-14.2
Cc1ccc(C(=O)c2cnc3cc4c(cc3c2N2CCCC2)OCO4)cc1C	-2.84
Fc1ccccc1C1CC(c2ccc(Br)cc2)=NN1c1cccc(Br)c1 (stereo not drawn)	-2.66
COC(=O)c1ccccc1-c1ccc(/C=C2\C(=O)NC(=O)C(C#N)=C2C)o1	2.17
CC(C)Oc1ccc(C(CC(=O)O)NC(=O)Cc2ccc(Cl)cc2)cc1 (stereo not drawn)	-6.28
O=C(Cn1nc(Cc2ccncc2)c2ccccc2c1=O)N1CCN(Cc2ccccc2)CC1	2.04
COc1cccc(CNc2ccc(Br)c(C)c2)c1OC	0.00519
C=CCn1c(-c2ccc(C)cc2)cs/c1=N\c1cccc(O)c1	2.33
CCn1ccnc1C(O)c1ccc(OC)c(OC)c1 (stereo not drawn)	1.39
O=C(CCc1ccccc1)Nc1cccnc1	1.83
COc1cc(OC)c(CNC23CC4CC(CC(C4)C2)C3)cc1Br	-2.58
CCCOc1ccc(N2C(=O)CC(N3CCN(c4ncccn4)CC3)C2=O)cc1 (stereo not drawn)	-9.13
COC(=O)c1ccc(NC(=O)c2c(C(=O)O)cccc2[N+](=O)[O-])cc1	-0.0369
